# This is one part of the list.
# What was measured:
# Assay in all cases: glycan array binding signal (z-score within array); higher = stronger binding
# Conditions in all cases: glycan notation: IUPAC condensed, linker removed
# Gal4S6S(b1-4)GlcNAc = molecular target: Gal4S6S(b1-4)GlcNAc
# In short: (§1)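 Columns mapping to the same glycan were averaged after glycan names were converted to IUPAC-condensed notation. The data come from 3228 arrays in the Consortium for Functional Glycomics database, limited to those with an available protein sequence. Binding is reported as a within-array Z-score averaged across arrays of one protein sequence and across linkers.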
# Gal6S(b1-4)Glc = molecular target: Gal6S(b1-4)Glc
# In short: as §1
# Gal6S(b1-4)Glc6S = molecular target: Gal6S(b1-4)Glc6S
# In short: as §1
# Gal6S(b1-4)GlcNAc = molecular target: Gal6S(b1-4)GlcNAc
# In short: as §1
# GalNAc(a1-3)Gal = molecular target: GalNAc(a1-3)Gal
# In short: as §1
# GalNAc(a1-3)GalNAc = molecular target: GalNAc(a1-3)GalNAc
# In short: as §1
# [1] = molecular target: GalNAc(b1-3)Gal(a1-4)Gal(b1-4)GlcNAc
# In short: as §1
# GalNAc(b1-3)GalNAc = molecular target: GalNAc(b1-3)GalNAc
# In short: as §1
# GalNAc(b1-4)GlcNAc = molecular target: GalNAc(b1-4)GlcNAc
# In short: as §1
# Glc(a1-4)Glc = molecular target: Glc(a1-4)Glc
# In short: as §1
# Glc(a1-6)Glc(a1-6)Glc = molecular target: Glc(a1-6)Glc(a1-6)Glc
# In short: as §1
# Glc(b1-4)Glc = molecular target: Glc(b1-4)Glc
# In short: as §1
# Glc(b1-6)Glc = molecular target: Glc(b1-6)Glc
# In short: as §1
# GlcA(b1-3)Gal = molecular target: GlcA(b1-3)Gal
# In short: as §1
# GlcA(b1-6)Gal = molecular target: GlcA(b1-6)Gal
# In short: as §1
# [2] = molecular target: GlcNAc(a1-3)Gal(b1-4)GlcNAc
# In short: as §1
# [3] = molecular target: GlcNAc(a1-6)Gal(b1-4)GlcNAc
# In short: as §1
# [4] = molecular target: GlcNAc(b1-2)Gal(b1-3)GalNAc
# In short: as §1
# [5] = molecular target: GlcNAc(b1-2)Man(a1-3)[GlcNAc(b1-2)Man(a1-6)]Man(b1-4)GlcNAc(b1-4)GlcNAc
# In short: as §1
# GlcNAc(b1-3)Gal = molecular target: GlcNAc(b1-3)Gal
# In short: as §1
# [6] = molecular target: GlcNAc(b1-3)Gal(b1-3)GalNAc
# In short: as §1
# GlcNAc(b1-3)Gal(b1-4)Glc = molecular target: GlcNAc(b1-3)Gal(b1-4)Glc
# In short: as §1
# [7] = molecular target: GlcNAc(b1-3)Gal(b1-4)GlcNAc
# In short: as §1
# [8] = molecular target: GlcNAc(b1-3)Gal(b1-4)GlcNAc(b1-3)Gal(b1-4)GlcNAc
# In short: as §1
# GlcNAc(b1-3)GalNAc = molecular target: GlcNAc(b1-3)GalNAc
# In short: as §1
# [9] = molecular target: GlcNAc(b1-3)[GlcNAc(b1-6)]Gal(b1-4)GlcNAc
# In short: as §1
# [10] = molecular target: GlcNAc(b1-3)[GlcNAc(b1-6)]GalNAc
# In short: as §1
# [11] = molecular target: GlcNAc(b1-3)[GlcNAc(b1-6)]GlcNAc(b1-4)GlcNAc
# In short: as §1
# [12] = molecular target: GlcNAc(b1-4)Gal(b1-4)GlcNAc
# In short: as §1
# [13] = molecular target: GlcNAc(b1-4)GlcNAc(b1-4)GlcNAc
# In short: as §1
# [14] = molecular target: GlcNAc(b1-4)GlcNAc(b1-4)GlcNAc(b1-4)GlcNAc(b1-4)GlcNAc
# In short: as §1
# [15] = molecular target: GlcNAc(b1-4)GlcNAc(b1-4)GlcNAc(b1-4)GlcNAc(b1-4)GlcNAc(b1-4)GlcNAc
# In short: as §1
# [16] = molecular target: GlcNAc(b1-4)[GlcNAc(b1-6)]GalNAc
# In short: as §1
# [17] = molecular target: GlcNAc(b1-6)Gal(b1-4)GlcNAc
# In short: as §1
# GlcNAc(b1-6)GalNAc = molecular target: GlcNAc(b1-6)GalNAc
# In short: as §1
# Kdn(a2-3)Gal(b1-3)GlcNAc = molecular target: Kdn(a2-3)Gal(b1-3)GlcNAc
# In short: as §1
# Kdn(a2-3)Gal(b1-4)GlcNAc = molecular target: Kdn(a2-3)Gal(b1-4)GlcNAc
# In short: as §1
# [18] = molecular target: Man(a1-2)Man(a1-2)Man(a1-3)Man
# In short: as §1
# [19] = molecular target: Man(a1-2)Man(a1-2)Man(a1-6)[Man(a1-3)]Man
# In short: as §1
# Man(a1-2)Man(a1-3)Man = molecular target: Man(a1-2)Man(a1-3)Man
# In short: as §1
# [20] = molecular target: Man(a1-2)Man(a1-3)[Man(a1-2)Man(a1-6)]Man
# In short: as §1
# [21] = molecular target: Man(a1-2)Man(a1-3)[Man(a1-2)Man(a1-6)]Man(a1-6)[Man(a1-2)Man(a1-2)Man(a1-3)]Man(b1-4)GlcNAc(b1-4)GlcNAc
# In short: as §1
# [22] = molecular target: Man(a1-2)Man(a1-3)[Man(a1-6)]Man(a1-6)[Man(a1-2)Man(a1-3)]Man(b1-4)GlcNAc(b1-4)GlcNAc
# In short: as §1
# [23] = molecular target: Man(a1-2)Man(a1-6)[Man(a1-3)]Man(a1-6)[Man(a1-2)Man(a1-2)Man(a1-3)]Man(b1-4)GlcNAc(b1-4)GlcNAc
# In short: as §1
# Man(a1-3)[Man(a1-6)]Man = molecular target: Man(a1-3)[Man(a1-6)]Man
# In short: as §1
binder,measurement,setting,value
"F17bG (Escherichia coli), Q47200 (protein) MTNFYKVFLAVFILVCCNISHAVVSFIGSTENDVGPSQGSYSSTHAMDNLPFVYNTGYNIGYQNANVWRIGGGFCVGLDGKVDLPVVGSLDGQSIYGLTEEVGLLIWMGDTNYSRGTAMSGNSWENVFSGWCVGNYLSTQGLSVHVRPVILKRNSSAQYSVQKTSIGSIRMRPYNGSSAGSVQTTVNFSLNPFTLNDTVTSCRLLTPSAVNVSLAAISAGQLPSSGDEVVAGTTSLKLQCDAGVTVWATLTDATTPSNRSDILTLTGASTATGVGLRIYKNTDSTPLKFGPDSPVKGNENQWQLSTGTETSPSVRLYVKYVNTGEGINPGTVNGISTFTFSYQ",glycan array binding signal (z-score),Gal4S6S(b1-4)GlcNAc,0.82
same,glycan array binding signal (z-score),Gal6S(b1-4)Glc,-0.028
same,glycan array binding signal (z-score),Gal6S(b1-4)Glc6S,0.5
same,glycan array binding signal (z-score),Gal6S(b1-4)GlcNAc,0.145
same,glycan array binding signal (z-score),GalNAc(a1-3)Gal,-0.61
same,glycan array binding signal (z-score),GalNAc(a1-3)GalNAc,-0.634
same,glycan array binding signal (z-score),[1],-0.579
same,glycan array binding signal (z-score),GalNAc(b1-3)GalNAc,4.47
same,glycan array binding signal (z-score),GalNAc(b1-4)GlcNAc,-0.391
same,glycan array binding signal (z-score),Glc(a1-4)Glc,-0.639
same,glycan array binding signal (z-score),Glc(a1-6)Glc(a1-6)Glc,-0.606
same,glycan array binding signal (z-score),Glc(b1-4)Glc,-0.434
same,glycan array binding signal (z-score),Glc(b1-6)Glc,-0.419
same,glycan array binding signal (z-score),GlcA(b1-3)Gal,-0.13
same,glycan array binding signal (z-score),GlcA(b1-6)Gal,-0.278
same,glycan array binding signal (z-score),[2],-0.642
same,glycan array binding signal (z-score),[3],-0.605
same,glycan array binding signal (z-score),[4],-0.48
same,glycan array binding signal (z-score),[5],0.335
same,glycan array binding signal (z-score),GlcNAc(b1-3)Gal,4.21
same,glycan array binding signal (z-score),[6],2.47
same,glycan array binding signal (z-score),GlcNAc(b1-3)Gal(b1-4)Glc,3.24
same,glycan array binding signal (z-score),[7],1.95
same,glycan array binding signal (z-score),[8],1.52
same,glycan array binding signal (z-score),GlcNAc(b1-3)GalNAc,3.86
same,glycan array binding signal (z-score),[9],5.83
same,glycan array binding signal (z-score),[10],2.94
same,glycan array binding signal (z-score),[11],1.09
same,glycan array binding signal (z-score),[12],3.19
same,glycan array binding signal (z-score),[13],0.085
same,glycan array binding signal (z-score),[14],-0.372
same,glycan array binding signal (z-score),[15],-0.447
same,glycan array binding signal (z-score),[16],3.18
same,glycan array binding signal (z-score),[17],0.854
same,glycan array binding signal (z-score),GlcNAc(b1-6)GalNAc,1.26
same,glycan array binding signal (z-score),Kdn(a2-3)Gal(b1-3)GlcNAc,-0.237
same,glycan array binding signal (z-score),Kdn(a2-3)Gal(b1-4)GlcNAc,-0.374
same,glycan array binding signal (z-score),[18],-0.414
same,glycan array binding signal (z-score),[19],-0.659
same,glycan array binding signal (z-score),Man(a1-2)Man(a1-3)Man,-0.573
same,glycan array binding signal (z-score),[20],-0.54
same,glycan array binding signal (z-score),[21],-0.585
same,glycan array binding signal (z-score),[22],-0.383
same,glycan array binding signal (z-score),[23],-0.296
same,glycan array binding signal (z-score),Man(a1-3)[Man(a1-6)]Man,0.592

# From the supplement of paper PMC8728848
